According to the supplement of paper PMC10681739:
± gives the standard deviation of the averaged measurements. The full ranking holds about 4,100 sequences; the median of “arbitrary fluorescence units” is about 780, and the highest 2% start at about 22,000. The list shows a part of the results.

molecular target: T1, ETS1 (UniProt P14921); test: ETS1 binding intensity (PBM fluorescence), ETS1 alone (arbitrary fluorescence units); higher = stronger binding; settings: ETS1 concentration 1 nM; RUNX1 concentration 0 nM
T1 sequence: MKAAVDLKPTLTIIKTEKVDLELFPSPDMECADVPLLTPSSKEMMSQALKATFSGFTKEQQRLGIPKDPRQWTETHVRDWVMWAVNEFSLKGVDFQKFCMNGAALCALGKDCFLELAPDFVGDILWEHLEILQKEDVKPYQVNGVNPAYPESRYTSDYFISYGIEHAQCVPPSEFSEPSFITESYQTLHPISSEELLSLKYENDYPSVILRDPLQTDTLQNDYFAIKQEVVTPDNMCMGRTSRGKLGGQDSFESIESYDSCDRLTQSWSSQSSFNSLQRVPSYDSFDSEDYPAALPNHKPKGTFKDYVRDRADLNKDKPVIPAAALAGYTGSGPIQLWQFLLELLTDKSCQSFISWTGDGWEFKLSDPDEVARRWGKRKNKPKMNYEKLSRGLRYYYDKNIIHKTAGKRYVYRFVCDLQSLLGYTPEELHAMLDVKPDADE
Method in brief: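 Recombinant full-length human ETS1 was applied at 1 nM, without RUNX1, to double-stranded Agilent 4 × 180k arrays of 36-bp genomic probes carrying a mutated RUNX1 partner site, following standard PBM protocols. Detection used an anti-ETS1 antibody (Cell Signaling Technology 14069) and an Alexa488-conjugated secondary antibody, with scanning on a GenePix 4400A. Each sequence was printed as four replicate spots. Binding level is the spot fluorescence intensity, summarised across replicates and not normalised.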

Row | Sequence | ETS1 binding intensity
1 | TGCTCTGGGGACAGCCCAGGTGCAGGAAGGGGCCAG | 312
2 | AGGGAAGAGGGAAGTCGTGGTGTTCGCGAGGGAGCC | 482
3 | CAAAATGCGCGATCTGGAGAGGAAACAAAGCAGTGG | 393
4 | AGGTTCCTGAGGTGGCCGCGTGCTGGTTCCGTTAGC | 398
5 | CTGTCCACATAAGGAAGTTGGGACCCCAAGGTCTTT | 557 ± 52
6 | TTGCACTCTGAGGGGACGGGAGAAGGAAGGAAAAAT | 542
7 | CCCGGACTGCAGGCCGGACTACACTTCCCGTCGGCC | 810
8 | CCTGCTGTGACTTCGGCTGTTTTCCTGGCCTGTGAG | 387
9 | GCCGCCGTAGATTCGACACAAAACCCGGAAGGACCC | 530
10 | TAGCCACTAACCGGAAACGTTAAACTACAGCTCCGT | 13000
11 | GAGCGGAAACCCGAGAGTCAGTTCAACGACAGCCAC | 1290
12 | GCCCCGGTGGATTTGACCTCCCGCGAACTTCCCTTT | 364
13 | CTGTCCGCTACATCCGGGACCTGGGGGACCGCCGAT | 10800
14 | GTGCTGTGACCCCAACGTACACAGCAGGAAGGAAGG | 463
15 | AGCCACGGTAGCAGGGCGCAGGCCGGAACCTTTCTT | 347
16 | TAAACTACGTTTCCCAGAAGGCTGAGGGATTGCGTC | 339
17 | AGCGTTGTCTTCCGGCCTCAATCACTCAGCGACCGG | 7020
18 | AACAACAAACATCCCAGGAACCCCAGTGGGACAGGA | 424
19 | ACAGTATTTTGGTGAATCATTTCCTTCCAAGGCTCA | 703
20 | TCCAGCGTTAATAATCACACACACTTCCTCTTAATC | 1140
21 | ACCTCCGCTGAGCACCCTGCAGGCGGAAGAACGGCC | 472
22 | CTCTGTCAGGAAAATACACTTGGATGAGGTGACAGA | 317
23 | CAAGGAGGCTTCCTGCGTGGGGCCGAAGAGCGAGTC | 2930
24 | CCCCTTCATCCGCCTCTCTCTCGCCGCGCCGCTCCC | 1250
25 | CTCCCACATCCGAAGCGGCGCAACTCACAACAGCCT | 1140
26 | GCTTTCTCTGGTGACTGGGCGCTTCCTGTTTTCTCA | 2540
27 | TTGCTTTTTAAGGTTTGTATTTCCTGTGTGAGCTGT | 2880

Row | Sequence | ETS1 binding intensity
28 | TGGGGTGGGGTGGGAAGTGCCAGCGGCCTGGGTGTC | 576
29 | CTGCGTCCCGGAAGGAGCGAGCTTACGGAGCGTGAA | 3080
30 | CGTGTCCACGGGGACCGAAAGTGGCGTCCGGCGCAA | 354
31 | CTCCCGGACGCTAACGTCTGGCAAATCACATTGCCC | 453
32 | AGCGGGGAGGAAGATCAGAAGAAAACCCCACGAGTT | 384
33 | CAGCTGCGGAACTGCGCGATTGGGGTTCCCGCCGTA | 608
34 | AGTCTCACGGTGCTTGAACCAGCGGAAGTGACGTCG | 1730
35 | GCAGCTTAGGAAGGGGCGGCTGAGCACACTGGTCTA | 458
36 | CGGGAGATTCCGGATCCAGGATCTGCTGCAGGCCCG | 401
37 | GCGCTTCCTGCCAGCTTGGAGGATAGCCGCCTACCG | 14500
38 | AGTTTCTTCTTTCCGGTGGGTTTGGGGTCTTGCTGA | 7130
39 | ACCACACTTCCCAAGGGTCTCTGGGGCTGCGCGGAG | 357
40 | TGGTGCTTTGGTGCTTTGGTGGCAGCAGGAAGGTAA | 497
41 | GGGTCACCCAGGGGAAGTTTGAACCCCAGCCATCAG | 500
42 | AGGTTCCGGGGCTACACCCAGCCCAGGCCGTAGGCA | 1980
43 | AAAGCTCCGCGCGGGTCCCACCCCGGAACTGCCTCT | 378
44 | CCTAAGTGACAGGATGGTCTGGCGACGACATTGCCC | 479
45 | GGACATCAGATGAGGTAGAGCAGGAAGAGGCGCTGT | 533
46 | GCTCCCCTGACAACACCAGTTCCTCAGGAAGCCTCT | 335
47 | TCCAGGAAGGGGCAGGGGCCTGCTTGTAGGTTTAAA | 539
48 | AACTGGGGTGGGCCCCGCCCAGTTCGAACTTCCCTG | 440
49 | CTCCTCCCCCACTTCCTATTTTTACAGCAGTTGCAC | 2630
50 | CCGAGACACCTCGGGCGAGCGCAGGATGGGGTTGTC | 352
51 | AGTGCTGGGCTGAGGGCCGGGGAGGAAGGCGGCTCG | 376
52 | GTTCTCCACATCCTGTTCCGTAGCTGGGGTGCACCG | 15600
53 | TTGGTTTCAGTGGATTTTGGCCAGCTTCCTTACCAG | 414
54 | TGGGCAGGAAGTGGTATCTGATTGGGGTTTTGATTT | 4560

Row | Sequence | ETS1 binding intensity
55 | GGCTGCAGGAAGTGGGAAGGTGTAGCTTTGAGTCTC | 2810
56 | TGCTTCCCTTCCGTTCCGACAGCGAAAAGCGCTGCC | 5370
57 | CTCCACTCGCGGATTCGTGCCTCCCTTCCGTTCCGA | 492
58 | CCCCACGCCGTGTCGGTAACGCGGAAGCCTGTGTCC | 384
59 | TTGCATGCTGGGATGTGTAGTCCTGGCCGCTGTGCT | 356
60 | GGAGCGGCGCGTTACTACTGGGGAAGTCGGCGGCTG | 365
61 | TCTTTGGGGTGGAGGTGGCAGGTCTTTCTTCCGCTG | 580
62 | CTCCCCCCAGGGGGCCGCGCTTTATACATCCGGACC | 750
63 | GCGCAAGCAGGAAGCGTTTGCAGTGATCCCGGCGAC | 1620
64 | CCGGGAAGGCGGAAGCAGCAGAGACGCCGCGAGGCC | 2220
65 | TGCGCCTGCAGCCTCCAGGCATCGCGTCCGGCTGGA | 435
66 | CACTTCCGGGTCGTCAGCTCAGTTCTGCTGTTTCTG | 26000
67 | GCCTGGTACCAATAAAAAGATCAACACCGGAAATAA | 4780
68 | GCTTACGTCACGTCCGGCGCCTGGGGCCCACCCCTC | 3150
69 | CCGTGGAAGGAAACGCTGCCAACCCCAACAGAAATG | 681
70 | ACGTGATCGCGTGGGCGCAGTCCCAGACAGGAAACG | 851
71 | GTGACCCTGAGGGCCAGTCACTTCCTCTGAGCCTCA | 1450
72 | GCCTGCTGTTTGGGTGCTGTGACCGTCCGGGGGCGG | 539
73 | GAGCTGCAAGTCACAAAGACCGGAAGTGCGCGTACG | 26000
74 | TCTGGATTTCCTGTGGGGCTCTCCCCCAAGCAGTAC | 12200
75 | GGCCGGGGACGGAAGGCGGGCCTGCAGCAGATCCTG | 482
76 | ACCCTTCCTGGAGCATTGTCGCAGCAACTACAACAG | 1800
77 | TGCTCGGGTGGACACCGCTGCAGGAAGCTCGATAGC | 445
78 | TCAGCCTGTAGTTTCTGAAGACTTCCTCGAAGTCAT | 415
79 | AACCCCTTGCACCGTGGACACAGCTTCCTCTTCCCC | 482
80 | TCCAGGATGTGGGATGCCGTGCTGTACCTCATGTCA | 1020
